± gives the uncertainty stated by the source. Shown are siRNA guide strands that differ only in the seed, positions 2 to 7.
Key:
[1] = system: HeyA8; assay: cell viability relative to lipid-only control; higher = less toxic; settings: concentration: 10 nM; 96 h; Homo sapiens
Procedure: (§1)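 Arrayed screen of 4096 siRNA duplexes, each carrying one of all possible 6mer seeds at guide-strand positions 2-7 in a fixed neutral 19mer scaffold (constant flanks: U at position 1, then ACAUGUAAACCA, plus a 3' AA overhang). The passenger strand is 2'-O-methylated at positions 1-2 so only the guide strand loads into RISC. Duplexes were reverse-transfected at 10 nM with RNAiMAX in triplicate in 384-well plates; viability was read by CellTiter-Glo ATP content 96 h after transfection. Values are % viability normalised to lipid-only wells (HeyA8, H460, M565) or to siNT1 (3LL).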

[2] = system: M565; assay: as above; settings: concentration: 10 nM; 96 h; Mus musculus
Procedure: as §1

[3] = system: H460; assay: as above; settings: concentration: 10 nM; 96 h; Homo sapiens
Procedure: as §1

[4] = system: 3LL; assay: cell viability relative to siNT1 control; HeyA8 human ovarian and H460 human lung cancer; M565 mouse liver and 3LL mouse lung cancer; siNT1 is a non-toxic control siRNA; higher = less toxic; settings: concentration: 10 nM; 96 h; Mus musculus;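 also: Luminescence-based viability of cells reverse transfected in 384-well plates with lipid-complexed siRNAs built on a non-toxic 19mer backbone whose passenger strand carries 2′-O-methyl groups at positions 1 and 2, triplicates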
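For cell viability relative to lipid-only control in this document: reverse lipid transfection in 384-well plates, in triplicate, of duplexes on a non-toxic 19mer backbone with passenger strand 2′-O-methylated at positions 1 and 2, luminescence viability read-out.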

Row | Sequence | cell viability [1] | cell viability [2] | cell viability [3] | cell viability [4]
1 | UGUCCCUACAUGUAAACCAAA | 22.1 ± 4.5% | 3.17 ± 1.1% | 24.3 ± 1.7% | 30.3 ± 7.8%
2 | UCACGAUACAUGUAAACCAAA | 88.5 ± 8.3% | 64.4 ± 6.7% | 36.2 ± 1.4% | 96.4 ± 12%
3 | UGCCAAAACAUGUAAACCAAA | 90.4 ± 5.9% | 55.4 ± 9.1% | 68.1 ± 10% | 93.3 ± 8.4%
4 | UAGUGUCACAUGUAAACCAAA | 61.4 ± 4% | 39.5 ± 2.9% | 55.9 ± 6.4% | 21 ± 5.2%
5 | UACUAACACAUGUAAACCAAA | 62.7 ± 3% | 55.5 ± 11% | 63.5 ± 6.8% | 86.9 ± 7.4%
6 | UGUCGCCACAUGUAAACCAAA | 22.4 ± 0.75% | 16.4 ± 1.6% | 49.1 ± 1.9% | 7.35 ± 0.65%
7 | UAGGUAUACAUGUAAACCAAA | 48.5 ± 5.3% | 46.9 ± 9.5% | 59.5 ± 14% | 23 ± 3%
8 | UUAAUCAACAUGUAAACCAAA | 86.5 ± 3.1% | 85.1 ± 19% | 80.8 ± 13% | 97.1 ± 7.3%
9 | UAAGGGCACAUGUAAACCAAA | 25.9 ± 5.5% | 8.51 ± 3.7% | 46.7 ± 12% | 22.7 ± 2.5%
10 | UGCUAUGACAUGUAAACCAAA | 65.4 ± 6.1% | 110 ± 1.6% | 58.9 ± 1.1% | 89.6 ± 16%
11 | UCAAAGAACAUGUAAACCAAA | 82.7 ± 10% | 73.9 ± 6% | 59.7 ± 11% | 87 ± 17%
12 | UAGGUCUACAUGUAAACCAAA | 12.5 ± 0.75% | 14.6 ± 2.7% | 21.7 ± 6.6% | 44.8 ± 5.1%
13 | UCUGAACACAUGUAAACCAAA | 68.4 ± 1.9% | 71.1 ± 12% | 65.1 ± 9.2% | 94.5 ± 14%
14 | UUGUUAAACAUGUAAACCAAA | 71.2 ± 8% | 61.4 ± 4.9% | 68 ± 5.8% | 53.6 ± 6.3%
15 | UCAUCUAACAUGUAAACCAAA | 83.6 ± 10% | 65 ± 14% | 47.1 ± 3% | 93.3 ± 17%
16 | UAUUCGGACAUGUAAACCAAA | 92.6 ± 4% | 88.8 ± 7.8% | 77.1 ± 6.5% | 102 ± 18%
17 | UCGCAAUACAUGUAAACCAAA | 85.1 ± 6.3% | 82 ± 18% | 73.7 ± 5.2% | 95 ± 11%
18 | UUACAGUACAUGUAAACCAAA | 72.7 ± 2% | 44.7 ± 9.3% | 58.5 ± 5.2% | 78.3 ± 4.4%
19 | UAGCCGAACAUGUAAACCAAA | 77.8 ± 5.2% | 35.7 ± 15% | 71.5 ± 18% | 81 ± 7.9%

Row | Sequence | cell viability [1] | cell viability [2] | cell viability [3] | cell viability [4]
20 | UACUUCCACAUGUAAACCAAA | 34.5 ± 2.4% | 30.4 ± 2% | 63.2 ± 0.36% | 24.1 ± 3.1%
21 | UCACAGGACAUGUAAACCAAA | 78.1 ± 4.2% | 38.1 ± 5.7% | 16.4 ± 2% | 38.9 ± 5.8%
22 | UCUCGACACAUGUAAACCAAA | 81.6 ± 5.2% | 65.7 ± 17% | 38.1 ± 0.56% | 94.1 ± 15%
23 | UCUCGGUACAUGUAAACCAAA | 75.4 ± 10% | 41.3 ± 8.4% | 45.2 ± 1% | 94.5 ± 13%
24 | UAUAUGGACAUGUAAACCAAA | 77.9 ± 13% | 98.5 ± 1.6% | 87.8 ± 24% | 73.4 ± 18%
25 | UGUUUCUACAUGUAAACCAAA | 25.9 ± 4.6% | 80.6 ± 5.1% | 51.2 ± 2.3% | 88.6 ± 3.6%
26 | UACUCAGACAUGUAAACCAAA | 78.9 ± 6.8% | 25.3 ± 3.2% | 73.7 ± 6.1% | 92.2 ± 9.6%
27 | UUGAGACACAUGUAAACCAAA | 51.3 ± 1.7% | 23.6 ± 5.4% | 33.5 ± 3.7% | 34.3 ± 8.4%
28 | UACCCCCACAUGUAAACCAAA | 19.3 ± 3.7% | 17.8 ± 3.2% | 14.6 ± 1.1% | 5.98 ± 1.5%
29 | UUCGCAUACAUGUAAACCAAA | 82.5 ± 4.6% | 87.3 ± 8.3% | 90.8 ± 25% | 92.2 ± 24%
30 | UACAUUCACAUGUAAACCAAA | 57.6 ± 3.5% | 116 ± 3.5% | 74.3 ± 2.6% | 94.8 ± 7.6%
31 | UGAAUAUACAUGUAAACCAAA | 49.5 ± 4.6% | 54.5 ± 3.6% | 73.7 ± 26% | 106 ± 15%
32 | UAGUUAAACAUGUAAACCAAA | 63.6 ± 3.2% | 69.6 ± 2.6% | 65.3 ± 16% | 84.7 ± 8.3%
33 | UGAACGGACAUGUAAACCAAA | 70.4 ± 5.2% | 62.6 ± 5.4% | 58.1 ± 6.3% | 60.5 ± 9.2%
34 | UAUAAGGACAUGUAAACCAAA | 87.5 ± 8.3% | 89.9 ± 16% | 80.6 ± 6.8% | 104 ± 15%
35 | UACCUCCACAUGUAAACCAAA | 51.9 ± 6.5% | 8.85 ± 2.4% | 35.1 ± 3.7% | 11.2 ± 5.8%
36 | UAAGGAUACAUGUAAACCAAA | 77.6 ± 2.3% | 33.2 ± 4.7% | 73.6 ± 14% | 80 ± 6.2%
37 | UGAUUAGACAUGUAAACCAAA | 82.3 ± 13% | 64.4 ± 8.5% | 70.9 ± 5.7% | 70.6 ± 14%
38 | UUAUGCAACAUGUAAACCAAA | 53.2 ± 1.7% | 63.2 ± 6.7% | 42.4 ± 6.5% | 47.1 ± 9.4%

Row | Sequence | cell viability [1] | cell viability [2] | cell viability [3] | cell viability [4]
39 | UAGAACUACAUGUAAACCAAA | 25.1 ± 2.5% | 79.6 ± 12% | 64.6 ± 16% | 66.6 ± 8%
40 | UCUACGGACAUGUAAACCAAA | 88.7 ± 7% | 70.2 ± 16% | 50.2 ± 1.8% | 99.7 ± 5.3%
41 | UCUUAGAACAUGUAAACCAAA | 89.1 ± 12% | 65.5 ± 9.8% | 46.6 ± 0.54% | 93.6 ± 15%
42 | UUUACUAACAUGUAAACCAAA | 96.2 ± 4.6% | 79.3 ± 8.5% | 95.4 ± 7.5% | 98.2 ± 2.8%
43 | UACAGUAACAUGUAAACCAAA | 99.9 ± 11% | 69.4 ± 6.3% | 114 ± 12% | 95.7 ± 18%
44 | UGAUAAGACAUGUAAACCAAA | 35 ± 3.1% | 22.1 ± 5.5% | 40.3 ± 3.1% | 57.3 ± 14%
45 | UACAUCAACAUGUAAACCAAA | 75.5 ± 10% | 59.3 ± 6.1% | 74.9 ± 4.7% | 90 ± 7.8%
46 | UUGUCAAACAUGUAAACCAAA | 99 ± 14% | 88.1 ± 11% | 83.3 ± 12% | 74.6 ± 7.3%
47 | UUAGAGAACAUGUAAACCAAA | 85.9 ± 13% | 103 ± 8% | 71.3 ± 7.8% | 55.6 ± 3%
48 | UAACGAUACAUGUAAACCAAA | 96.6 ± 7.3% | 81.8 ± 16% | 61.2 ± 4.9% | 98.9 ± 10%
49 | UAGAUUAACAUGUAAACCAAA | 90.6 ± 7.7% | 69.9 ± 5.7% | 102 ± 16% | 92.7 ± 3%
50 | UUCGAAGACAUGUAAACCAAA | 89 ± 10% | 82.9 ± 8.8% | 71.9 ± 14% | 104 ± 11%
51 | UUAAGCGACAUGUAAACCAAA | 103 ± 4.3% | 87.9 ± 10% | 91.7 ± 8.1% | 95 ± 7.8%
52 | UUAUCGUACAUGUAAACCAAA | 89.5 ± 5.4% | 59.6 ± 3.4% | 68.9 ± 4.2% | 38.8 ± 2%
53 | UCUCAAUACAUGUAAACCAAA | 86.3 ± 6.8% | 74.3 ± 16% | 39.6 ± 6.6% | 98.1 ± 14%
54 | UGGUUAGACAUGUAAACCAAA | 30.4 ± 3.7% | 44.6 ± 2.8% | 48.6 ± 9.7% | 59 ± 2.5%
55 | UGACGAGACAUGUAAACCAAA | 76.4 ± 6.1% | 28.7 ± 0.5% | 70.3 ± 1.2% | 79.5 ± 3.5%
56 | UUCCCUGACAUGUAAACCAAA | 79.4 ± 3.9% | 102 ± 14% | 78.7 ± 2% | 103 ± 6.4%
57 | UGGGGUCACAUGUAAACCAAA | 1.71 ± 0.4% | 11.6 ± 1.4% | 28.4 ± 3.4% | 6.92 ± 0.71%

Reference: the supplement of paper PMC6206098
